# Values joined by “and” are separate entries in the source; they are usually repeats but may differ in a detail not shown here. Identical values can stand only once. In all, about 2,900 compounds were measured (“NF-kB SEAP reporter activity, fold change vs agonist alone”: median about 0.99, highest 2% from about 2.6 on). Some of the results follow.
# Assays:
# RAW-Dual [1] = assay: NF-kB SEAP reporter activity, fold change vs agonist alone; cytotoxicity flag (confluency mask): not cytotoxic; higher = enhanced NF-kB activity
# Summary of the method: (§1)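 Cytotoxic wells were those whose IncuCyte confluency was below 70% of agonist controls in both mask sets. The cells were RAW-Dual macrophages at 50,000 cells/well in DMEM on 384-well plates, dosed with 50 nL of library stock by pin tool, stimulated with a PRR agonist 1 h later, and kept at 37 °C, 5% CO2 for 20 hours. IRF and NF-κB reporter activity, as fold change over agonist-alone wells, came from supernatant read by QuantiLuc luminescence and QuantiBlue absorbance, respectively.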
# RAW-Dual [2] = assay: NF-kB SEAP reporter activity, fold change vs agonist alone; higher = enhanced NF-kB activity
# Summary of the method: as §1
# RAW-Dual [3] = assay: NF-kB SEAP reporter activity, fold change vs agonist alone; cytotoxicity flag (confluency mask): cytotoxic (confluency <70% of control); higher = enhanced NF-kB activity
# Summary of the method: as §1
# [4] = agonist: ODN 1826 (TLR9) 0.5 ug/mL
# [5] = agonist: Pam2CSK4 (TLR2/6) 0.1 ug/mL
# [6] = agonist: Pam3CSK4 (TLR2/1) 0.1 ug/mL
# [7] = library stock concentration (final ~1000-fold dilution): 10 mM, cytotoxicity flag (confluency mask): not cytotoxic, agonist: Imiquimod (TLR7) […]
# [8] = library stock concentration (final ~1000-fold dilution): 10 mM, cytotoxicity flag (confluency mask): not cytotoxic, agonist: MPLA (TLR4) […]
structure (smiles),measurement,setting,value
O=C1[C@H](CC[C@H](O)c2ccc(F)cc2)[C@@H](c2ccc(O)cc2)N1c1ccc(F)cc1 (library stock concentration (final ~1000-fold dilution): 10 mM),NF-kB SEAP reporter activity,RAW-Dual [1]; agonist: LPS (TLR4) 0.1 ug/mL,0.814
same,NF-kB SEAP reporter activity,RAW-Dual [1]; [4],0.624
same,NF-kB SEAP reporter activity,RAW-Dual [1]; [5],0.366
same,NF-kB SEAP reporter activity,RAW-Dual [1]; [6],0.463
Cc1cc(-c2ncc(CC(=O)Nc3ccc(-c4cnccn4)cn3)cc2C)ccn1 (library stock concentration (final ~1000-fold dilution): 10 mM),NF-kB SEAP reporter activity,RAW-Dual [1]; agonist: LPS (TLR4) 0.1 ug/mL,1.26
same,NF-kB SEAP reporter activity,RAW-Dual [1]; [4],1
same,NF-kB SEAP reporter activity,RAW-Dual [1]; [5],1.02
same,NF-kB SEAP reporter activity,RAW-Dual [1]; [6],1.14
Cc1cc(-c2ncc(CC(=O)Nc3ccc(-c4cnccn4)cn3)cc2C)ccn1,NF-kB SEAP reporter activity,RAW-Dual [2]; [7],1.01
same,NF-kB SEAP reporter activity,RAW-Dual [2]; [8],1.18
CN1CCC(NC(=O)c2cc(-c3c(O)cc(O)cc3Oc3ccc([N+](=O)[O-])cc3)on2)CC1 (library stock concentration (final ~1000-fold dilution): 10 mM),NF-kB SEAP reporter activity,RAW-Dual [1]; agonist: LPS (TLR4) 0.1 ug/mL,0.235
same,NF-kB SEAP reporter activity,RAW-Dual [1]; [4],0.192
same,NF-kB SEAP reporter activity,RAW-Dual [1]; [5],0.0743
same,NF-kB SEAP reporter activity,RAW-Dual [1]; [6],0.133
CN1CCC(NC(=O)c2cc(-c3c(O)cc(O)cc3Oc3ccc([N+](=O)[O-])cc3)on2)CC1,NF-kB SEAP reporter activity,RAW-Dual [2]; [7],0.152
same,NF-kB SEAP reporter activity,RAW-Dual [2]; [8],0.341
CNCCc1ccccn1.Cl.Cl,NF-kB SEAP reporter activity,RAW-Dual [2]; [7],1.1
same,NF-kB SEAP reporter activity,RAW-Dual [2]; [8],1.02
CNCCc1ccccn1.Cl.Cl (library stock concentration (final ~1000-fold dilution): 10 mM),NF-kB SEAP reporter activity,RAW-Dual [1]; agonist: LPS (TLR4) 0.1 ug/mL,1.24
same,NF-kB SEAP reporter activity,RAW-Dual [1]; [4],1.07
same,NF-kB SEAP reporter activity,RAW-Dual [1]; [5],1.07
same,NF-kB SEAP reporter activity,RAW-Dual [1]; [6],1.03
CC(O)(P(=O)(O)O)P(=O)(O)O,NF-kB SEAP reporter activity,"RAW-Dual [2]; library stock concentration (final ~1000-fold dilution): 10 mM water, cytotoxicity flag (confluency mask): not cytotoxic, agonist: Imiquimod (TLR7) […]",0.953
same,NF-kB SEAP reporter activity,"RAW-Dual [2]; library stock concentration (final ~1000-fold dilution): 10 mM water, cytotoxicity flag (confluency mask): not cytotoxic, agonist: MPLA (TLR4) […]",1.04
CC(O)(P(=O)(O)O)P(=O)(O)O (library stock concentration (final ~1000-fold dilution): 10 mM water),NF-kB SEAP reporter activity,RAW-Dual [1]; agonist: LPS (TLR4) 0.1 ug/mL,1.13
same,NF-kB SEAP reporter activity,RAW-Dual [1]; [4],1.15
same,NF-kB SEAP reporter activity,RAW-Dual [1]; [5],1.25
same,NF-kB SEAP reporter activity,RAW-Dual [1]; [6],1.33
C=C1CCC2C(C)(CO)C(O)CC[C@@]2(C)[C@@H]1C/C=C1/C(=O)OCC1O (stereo not given in full),NF-kB SEAP reporter activity,RAW-Dual [2]; [7],0.287
same,NF-kB SEAP reporter activity,RAW-Dual [2]; [8],0.305
C=C1CCC2C(C)(CO)C(O)CC[C@@]2(C)[C@@H]1C/C=C1/C(=O)OCC1O (stereo not given in full) (library stock concentration (final ~1000-fold dilution): 10 mM),NF-kB SEAP reporter activity,RAW-Dual [1]; agonist: LPS (TLR4) 0.1 ug/mL,0.32
same,NF-kB SEAP reporter activity,RAW-Dual [1]; [4],0.206
same,NF-kB SEAP reporter activity,RAW-Dual [1]; [5],0.0769
same,NF-kB SEAP reporter activity,RAW-Dual [1]; [6],0.161
O=c1cc(-c2ccc(O)cc2)oc2cc(O)ccc12,NF-kB SEAP reporter activity,RAW-Dual [2]; [7],1.18
same,NF-kB SEAP reporter activity,RAW-Dual [2]; [8],1.35
O=c1cc(-c2ccc(O)cc2)oc2cc(O)ccc12 (library stock concentration (final ~1000-fold dilution): 10 mM),NF-kB SEAP reporter activity,RAW-Dual [1]; agonist: LPS (TLR4) 0.1 ug/mL,1.57
same,NF-kB SEAP reporter activity,RAW-Dual [1]; [4],1.18
same,NF-kB SEAP reporter activity,RAW-Dual [1]; [5],0.728
same,NF-kB SEAP reporter activity,RAW-Dual [1]; [6],0.927
CC1(C)CNc2cc(NC(=O)c3cccnc3NCc3ccncc3)ccc21 (library stock concentration (final ~1000-fold dilution): 10 mM),NF-kB SEAP reporter activity,RAW-Dual [1]; agonist: LPS (TLR4) 0.1 ug/mL,1.52 and 1.16
same,NF-kB SEAP reporter activity,RAW-Dual [1]; [4],0.467 and 0.857
same,NF-kB SEAP reporter activity,RAW-Dual [1]; [5],0.615 and 0.59
same,NF-kB SEAP reporter activity,RAW-Dual [1]; [6],0.484 and 0.66
CN(C/C=C/C#CC(C)(C)C)Cc1cccc2ccccc12.Cl,NF-kB SEAP reporter activity,RAW-Dual [2]; [7],1.56
same,NF-kB SEAP reporter activity,RAW-Dual [2]; [8],2.08
CN(C/C=C/C#CC(C)(C)C)Cc1cccc2ccccc12.Cl (library stock concentration (final ~1000-fold dilution): 10 mM),NF-kB SEAP reporter activity,RAW-Dual [1]; agonist: LPS (TLR4) 0.1 ug/mL,3.51
same,NF-kB SEAP reporter activity,RAW-Dual [1]; [4],0.849
same,NF-kB SEAP reporter activity,RAW-Dual [1]; [5],0.948
same,NF-kB SEAP reporter activity,RAW-Dual [1]; [6],1.3
O=C1Cc2c([nH]c3ccc(Br)cc23)-c2ncccc2N1 (library stock concentration (final ~1000-fold dilution): 10 mM),NF-kB SEAP reporter activity,RAW-Dual [1]; agonist: LPS (TLR4) 0.1 ug/mL,1.5
same,NF-kB SEAP reporter activity,RAW-Dual [1]; [4],2.36
same,NF-kB SEAP reporter activity,RAW-Dual [1]; [5],1.36
same,NF-kB SEAP reporter activity,RAW-Dual [1]; [6],1.84
O=C1Cc2c([nH]c3ccc(Br)cc23)-c2ncccc2N1,NF-kB SEAP reporter activity,RAW-Dual [2]; [7],1.54
same,NF-kB SEAP reporter activity,RAW-Dual [2]; [8],2.06
COc1ccc2cc(OCC3(C(=O)O)CN(C(=O)c4ccc(F)cc4)C3)ccc2c1,NF-kB SEAP reporter activity,RAW-Dual [2]; [7],0.937
same,NF-kB SEAP reporter activity,RAW-Dual [2]; [8],1.07
COc1ccc2cc(OCC3(C(=O)O)CN(C(=O)c4ccc(F)cc4)C3)ccc2c1 (library stock concentration (final ~1000-fold dilution): 10 mM),NF-kB SEAP reporter activity,RAW-Dual [1]; agonist: LPS (TLR4) 0.1 ug/mL,1.16
same,NF-kB SEAP reporter activity,RAW-Dual [1]; [4],0.961
same,NF-kB SEAP reporter activity,RAW-Dual [1]; [5],1
same,NF-kB SEAP reporter activity,RAW-Dual [1]; [6],0.995
COCCn1c2c([n+](Cc3cnccn3)c1C)C(=O)c1ccccc1C2=O (library stock concentration (final ~1000-fold dilution): 10 mM),NF-kB SEAP reporter activity,RAW-Dual [3]; agonist: LPS (TLR4) 0.1 ug/mL,0.238
same,NF-kB SEAP reporter activity,RAW-Dual [3]; [4],1.22
same,NF-kB SEAP reporter activity,RAW-Dual [3]; [5],0.377
same,NF-kB SEAP reporter activity,RAW-Dual [3]; [6],0.161
COCCn1c2c([n+](Cc3cnccn3)c1C)C(=O)c1ccccc1C2=O,NF-kB SEAP reporter activity,"RAW-Dual [2]; library stock concentration (final ~1000-fold dilution): 10 mM, cytotoxicity flag (confluency mask): cytotoxic (confluency <70% of control), agonist: Imiquimod (TLR7) […]",0.201
same,NF-kB SEAP reporter activity,"RAW-Dual [2]; library stock concentration (final ~1000-fold dilution): 10 mM, cytotoxicity flag (confluency mask): cytotoxic (confluency <70% of control), agonist: MPLA (TLR4) […]",0.182
Cc1cc(-c2ccc(CC(=O)Nc3ccc(-c4cccnc4)cc3)cc2)ccn1,NF-kB SEAP reporter activity,RAW-Dual [2]; [7],1.08
same,NF-kB SEAP reporter activity,RAW-Dual [2]; [8],1.26
Cc1cc(-c2ccc(CC(=O)Nc3ccc(-c4cccnc4)cc3)cc2)ccn1 (library stock concentration (final ~1000-fold dilution): 10 mM),NF-kB SEAP reporter activity,RAW-Dual [1]; agonist: LPS (TLR4) 0.1 ug/mL,1.7
same,NF-kB SEAP reporter activity,RAW-Dual [1]; [4],1.32
same,NF-kB SEAP reporter activity,RAW-Dual [1]; [5],1
same,NF-kB SEAP reporter activity,RAW-Dual [1]; [6],1.19
O=C(NC1=CC(=O)[C@H]2O[C@H]2[C@H]1O)c1ccccc1O,NF-kB SEAP reporter activity,RAW-Dual [2]; [7],1
same,NF-kB SEAP reporter activity,RAW-Dual [2]; [8],1.08
O=C(NC1=CC(=O)[C@H]2O[C@H]2[C@H]1O)c1ccccc1O (library stock concentration (final ~1000-fold dilution): 10 mM),NF-kB SEAP reporter activity,RAW-Dual [1]; agonist: LPS (TLR4) 0.1 ug/mL,0.727
same,NF-kB SEAP reporter activity,RAW-Dual [1]; [4],0.951
same,NF-kB SEAP reporter activity,RAW-Dual [1]; [5],0.806
same,NF-kB SEAP reporter activity,RAW-Dual [1]; [6],0.551

# Source: the supplement of paper PMC10037445
